Test results published in patent publication US20120135013A1, “CD45 and Methods and Compounds Related Thereto” (priority 2007, published 2012).
Read-outs that look alike come from different tables or passages of the source.

Tests used:
J774A.1 cells [1] = assay: cells; assay type: cell-based, mouse
J774A.1 cells [2] = tested on: J774A.1 cells
Description: At 24, 48, 72 and 96 hours, the cells were stained and analyzed by flow cytometry methods known in the art. The cells (1×10^6) were resuspended in Fc block (anti CD16/CD32 antibody diluted in RPMI containing 10% FBS) (BD Biosciences, San Diego, Calif.), incubated on ice for 30 minutes, centrifuged and stained with either isotype control antibody or FITC conjugated CD45 antibody (BD Biosciences, San Diego, Calif.). After incubation on ice for 60 minutes, the cells were washed and resuspended in 3.7% formaldehyde. FACS analysis was performed using a FACSCalibur flow cytometer (BD Biosciences, San Diego, Calif.) and methods known in the art. Data was analyzed using FlowJo software (Tree Star, Inc; Ashland Oreg.).

[3] = Mus musculus, J774.A1, read-out: ED50 (μM)

| Compound | EC50 (J774A.1 cells [1]; [3]) | EC50 (J774A.1 cells [1]; read-out: ED50) | toxicity to the cells (J774A.1 cells [2]) |
| --- | --- | --- | --- |
| O=C1C(SCCO)=C(SCCO)C(=O)c2ccccc21 [NSC 95397] | 5 to 25 µM | 6 to 12 µM |  |
| NC(=O)CCSC1=CC(=O)c2ccccc2C1=O [NSC 270011] | 5 to 25 µM | 6 to 12 µM |  |
| CD45 PMO (CCACAAACCCATGGTCATATC; all phosphorodiamidate morpholino (PMO)) |  |  | not toxic |
| NC(=O)CCCSC1=CC(=O)c2ccccc2C1=O [NSC 270012] | 5 to 25 µM | 6 to 12 µM |  |
| O=C1C=C(SCCO)C(=O)c2ccccc21 [NSC 148596] | 5 to 25 µM |  |  |
